According to PubChem BioAssay AID588342 (National Center for Advancing Translational Sciences (NCATS), 2011):
The whole screen tested about 360,000 compounds, of which about 25,000 (6.9%) were called active. Inconclusive results, whose numbers are uncertain, are shown with a selection of clear calls. Calls follow the shape of the dose curve; as a rule, active = well fitted inhibition curve with a large enough effect; inconclusive = small, poorly fitted or top-dose-only effect; inactive = flat fitted curve, though single readings scatter. Where the call is inconclusive, the potency comes from a doubtful curve fit.

Target: Luciferin 4-monooxygenase (Photinus pyralis) (UniProt P08659)
Assay: qHTS profiling assay for firefly luciferase inhibitor/activator using purifed enzyme and Km concentrations of substrates (counterscreen for miR-21 project); also: nearly all actives have a fitted effect of over 55% in size;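 as to activity change, negative = inhibition: plate controls were vehicle for no effect and reference inhibitor for full effect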
Details: purified FLuc, luminescence inhibition; activity change, negative = inhibition: at 57.5 µM (top of the series)
Procedure, shortened: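 Biochemical qHTS of compounds, final roughly 60 µM downward over six points, against 10 nM purified firefly luciferase using Km concentrations of substrates (10 uM D-luciferin, 10 uM ATP) in Tris acetate pH 7.5 buffer; luminescence output.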
Potency is read from the fitted curve at half-maximal effect; tags tell the direction and shape of the fitted curve.

Sequence of UniProt P08659 (P08659 whole entry, looked up): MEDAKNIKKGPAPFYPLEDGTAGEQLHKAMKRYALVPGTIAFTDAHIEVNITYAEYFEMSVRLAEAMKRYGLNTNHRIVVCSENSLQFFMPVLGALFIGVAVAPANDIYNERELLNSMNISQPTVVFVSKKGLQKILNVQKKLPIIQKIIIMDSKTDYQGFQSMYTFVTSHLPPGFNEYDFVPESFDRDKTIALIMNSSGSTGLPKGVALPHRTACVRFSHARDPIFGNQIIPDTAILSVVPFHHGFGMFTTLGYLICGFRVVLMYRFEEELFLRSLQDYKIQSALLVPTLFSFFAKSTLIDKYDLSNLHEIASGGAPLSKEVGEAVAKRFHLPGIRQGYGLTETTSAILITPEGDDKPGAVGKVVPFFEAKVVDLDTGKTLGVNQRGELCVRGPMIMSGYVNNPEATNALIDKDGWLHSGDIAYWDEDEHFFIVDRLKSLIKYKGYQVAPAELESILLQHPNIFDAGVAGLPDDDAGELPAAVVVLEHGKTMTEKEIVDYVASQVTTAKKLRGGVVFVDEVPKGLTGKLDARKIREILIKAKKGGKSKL

| Compound | Potency | activity change, negative = inhibition |
| --- | --- | --- |
| Cc1sc(-c2cccnc2)nc1OC(=O)C1CC1 | inconclusive: 37.9 µM [inhibitor, single point] |  |
| Cc1ccc2nc(SCC(=O)c3ccc(Cl)s3)[nH]c2c1 | inconclusive: 23.9 µM [inhibitor, single point] |  |
| COc1ccc(-c2csc(NC(=O)c3cc(C)on3)c2C#N)cc1OC | inconclusive: 5.36 µM [inhibitor, partial curve, poor fit] |  |
| COc1cc(OC)c2cc(C(=O)N/N=C/c3cccc(OC)c3O)[nH]c2c1 | inconclusive: 15.1 µM [inhibitor, partial curve] |  |
| Cc1ccc(C(=O)/C=C/c2cn(CC(O)CN3CCOCC3)c3ccccc23)cc1 (stereo not drawn) | inconclusive: 13.5 µM [inhibitor, partial curve, poor fit] |  |
| CCOC(=O)c1cc(S(=O)(=O)N2CCN(c3ccccc3F)CC2)[nH]n1 |  | inactive: -19.8% |
| N=c1c2c3c(sc2ncn1Cc1ccco1)CCCCC3 | inconclusive: 23.9 µM [inhibitor, single point] |  |
| CC(C)COc1ccc(C(=O)NCc2ccco2)cc1 | inconclusive: 7.57 µM [inhibitor, partial curve] |  |
| COc1ccc(N=C2O/C(=C/c3sc(=S)n(CC4CCCO4)c3O)N=C2C#N)cc1 (stereo not drawn) | active: 2.39 µM |  |
| Fc1ccc(/C=N/NC2=Nc3cccc4cccc2c34)cc1 | active: 1.69 µM |  |
| N#C/C(=C(/O)COC(=O)c1ccc(C#N)cc1)c1nc2ccccc2s1 | inconclusive: 37.9 µM [inhibitor, single point] |  |
| O=C(Nc1ccc(Cl)cc1C(=O)NCc1cccnc1)c1ccc(Cl)cc1Cl | inconclusive: 19 µM [inhibitor, partial curve] |  |
| O=C(CCSc1ccccc1Cl)Nc1cccc([N+](=O)[O-])c1 | inconclusive: 16.9 µM [inhibitor, partial curve] |  |
| COC(=O)c1c(NC(=O)CN2CCN(c3cccc(Cl)c3)CC2)sc(C)c1C |  | inactive: 7.4% |
| Cc1ccc(O)c(NC(=O)c2cc(-c3ccccc3O)no2)c1 |  | inactive: 6.4% |
| O=C(NCCC1CC1(Cl)Cl)c1ccc([N+](=O)[O-])cc1 (stereo not drawn) | inconclusive: 37.9 µM [inhibitor, partial curve, poor fit] |  |
| COC(=O)c1[nH]c2c(c1C)C(=O)CC(c1cc(OC)ccc1OC)C2 (stereo not drawn) |  | inactive: -0.53% |
| Cc1cc(Cl)ccc1NC(=S)NCCC(c1ccccc1)c1ccccc1 |  | inactive: 1.04% |
| COc1ccc(C2CC(c3ccccc3)=NN2C(=O)CCCC(=O)O)cc1 (stereo not drawn) | inconclusive: 21.3 µM [inhibitor, single point] |  |
| COc1ccc(-c2nnc(SCc3cccc(Cl)c3)o2)cc1 | inconclusive: 23.9 µM [inhibitor, partial curve, poor fit] |  |
| Cc1nnc(NC(=O)CSc2ccc(-c3ccco3)nn2)s1 | inconclusive: 26.9 µM [inhibitor, partial curve] |  |
| CCn1cc(/C=N\NC(=O)COc2cccc(C)c2C)c(C)n1 | inconclusive: 37.9 µM [inhibitor, partial curve, poor fit] |  |
| O=C(Nc1cccc(NC(=O)c2ncn[nH]2)c1)c1cccc(Cl)c1 | inconclusive: 37.9 µM [inhibitor, partial curve, poor fit] |  |

| Compound | Potency | activity change, negative = inhibition |
| --- | --- | --- |
| COc1ccc(NC(=O)c2c(NC(=O)c3ccc(Br)cc3)sc3c2CCCC3)cc1 | inconclusive: 21.3 µM [inhibitor, partial curve, poor fit] |  |
| CC(C)(C)c1ccc(C(=O)Nc2ccc(N3CCOCC3)cc2)cc1 | inconclusive: 26.9 µM [inhibitor, single point] |  |
| O=C(CCCN1C(=O)/C(=C/c2cccc(Br)c2)SC1=S)NCCCN1CCOCC1 | inconclusive: 26.9 µM [inhibitor, single point] |  |
| CCOC(=O)CNC(=O)CSc1nnc(NC(=O)c2ccc(S(=O)(=O)N3CCOCC3)cc2)s1 | inconclusive: 15.1 µM [inhibitor, partial curve] |  |
| O=C(Nc1ccc2c(c1)oc1ccccc12)C1CC1 | active: 5.36 µM |  |
| O=C(Nc1ccccc1C(=O)NCCCn1ccnc1)c1ccc(Cl)cc1Cl | inconclusive: 26.9 µM [inhibitor, partial curve, poor fit] |  |
| Brc1ccc(-c2ccc(/C=N/Nc3nc4ccccc4[nH]3)o2)cc1 | active: 0.849 µM |  |
| Cc1ccc2onc(CC(=O)Nc3ccc(C(C)C)cc3)c2c1 |  | inactive: -1.2% |
| C/C(=N/NS(=O)(=O)c1ccc(Br)cc1)c1ccc(NC(=O)c2ccc(C)o2)cc1 | active: 23.9 µM |  |
| CN(C)c1ccc(C2Nc3ccccc3C(=O)N2CCCN2CCOCC2)cc1 (stereo not drawn) | active: 4.78 µM |  |
| COCCCn1c(SCC(=O)NNC(=O)c2cccc(O)c2)nnc1-c1ccncc1 |  | inactive: -3.07% |
| COc1ccc(/C=C2\SC(=O)N(CC(=O)NC3CCS(=O)(=O)C3)C2=O)cc1 (stereo not drawn) | inconclusive: 5.36 µM [inhibitor, full curve] |  |
| O=C(Nc1cccc(-c2nnc(-c3ccccc3)o2)c1)C1CC1 | inconclusive: 9.53 µM [inhibitor, partial curve, poor fit] |  |
| Cc1cccc(N=Cc2cc3c(cc2[N+](=O)[O-])OCO3)c1 | inconclusive: 21.3 µM [inhibitor, partial curve, poor fit] |  |
| O=C(O)c1cccc(N2C(=O)/C(=C/c3ccc(SCc4ccc(Cl)cc4)o3)SC2=S)c1 | inconclusive: 33.8 µM [inhibitor, single point] |  |
| COc1cc([N+](=O)[O-])cc2sc(NC(=O)C3CC3)nc12 |  | inactive: -3.15% |
| O=C(CN1C(=O)CSCC1=O)NCc1ccc(F)cc1 | inconclusive: 37.9 µM [inhibitor, partial curve, poor fit] |  |
| CCOC(=O)N/N=C\c1ccc([N+](=O)[O-])s1 |  | inactive: -8.62% |
| COc1ccc(/C=C2\SC(=S)N(CCC(=O)N3CCOCC3)C2=O)cc1 | inconclusive: 12 µM [inhibitor, partial curve, poor fit] |  |
| CCOc1ccc(NS(=O)(=O)c2ccc(C(=O)NC3CCC(O)CC3)cc2)cc1 (stereo not drawn) |  | inactive: 12.7% |
| O=[N+]([O-])c1cccc(C2=NCCS2)c1 |  | inactive: -8.97% |
| CCCOc1ccc(C(=O)Nc2ccc(Cl)c(-c3nc4ncccc4o3)c2)cc1 | inconclusive: 9.53 µM [inhibitor, partial curve, poor fit] |  |
| COc1ccc(N=N/C(C(C)=O)=C(/C)O)cc1 | inconclusive: 37.9 µM [inhibitor, partial curve, poor fit] |  |

| Compound | Potency | activity change, negative = inhibition |
| --- | --- | --- |
| Cc1ccc(/C=N/N=C2/NC(=O)CS2)o1 | inconclusive: 19 µM [inhibitor, single point] |  |
| CSc1nc2c(c(=O)[nH]c(=O)n2C)n1Cc1ccc(Cl)cc1 | inconclusive: 30.1 µM [inhibitor, partial curve, poor fit] |  |
| O=C(NC(=S)NC1CCS(=O)(=O)C1)c1ccccc1 (stereo not drawn) |  | inactive: 4.47% |
| Cc1ccc2c(CN3CCCCC3)cc(=O)oc2c1C | inconclusive: 37.9 µM [inhibitor, partial curve, poor fit] |  |
| CCOc1ccc(CCNC(=O)CCc2c(C)nc3cc(-c4ccccc4OC)nn3c2C)cc1 | inconclusive: 21.3 µM [inhibitor, partial curve, poor fit] |  |
| O=C(O)Cc1ccc(NC(=O)Nc2ccc3c(c2)OCO3)cc1 | active: 9.53 µM |  |
| CCCCN(CC)C(=O)c1cc2cc3ccc(OC)cc3nc2o1 | active: 15.1 µM |  |
| Cc1cccc(NC(=O)c2cc(-c3ccco3)nc3ccccc23)n1 | inconclusive: 12 µM [inhibitor, partial curve, poor fit] |  |
| COc1cccc(-c2nc(SCC(=O)NC3CCCC3)c(-c3ccccc3)[nH]2)c1 | inconclusive: 42.6 µM [inhibitor, partial curve, poor fit] |  |
| COc1ccccc1NC(=O)c1ccccc1NS(=O)(=O)c1cccs1 | inconclusive: 19 µM [inhibitor, partial curve] |  |
| CC(Sc1nnnn1C)C(=O)Nc1ccc2c(c1)OCCO2 (stereo not drawn) | inconclusive: 21.3 µM [inhibitor, partial curve, poor fit] |  |
| CCOc1ccc(-c2nc(SCC(=O)NC3CCCC3)c(-c3ccccc3)[nH]2)cc1OC | active: 23.9 µM |  |
| CCOc1ccc(NC(=O)/C=C\C(=O)N(c2ccc(C(C)C)cc2)C(C(=O)NCc2ccco2)c2ccc(F)cc2)cc1 (stereo not drawn) |  | inactive: 3.39% |
| O=C(CSCc1ccc(Cl)cc1)Nc1ccccc1O | inconclusive: 30.1 µM [inhibitor, partial curve, poor fit] |  |
| O=C(O)CC/C(=C\c1ccc(N2CCCC2)c([N+](=O)[O-])c1)c1nc2ccccc2s1 | inconclusive: 21.3 µM [inhibitor, partial curve, poor fit] |  |
| Cc1ccc(C)c(C(=O)COC(=O)c2cccc(N3C(=O)c4c(C)nc5ccccc5c4C3=O)c2)c1 | active: 1.51 µM |  |
| Cc1cc(Br)ccc1NC(=O)c1ccc(NS(=O)(=O)c2c(C)noc2C)cc1 | inconclusive: 19 µM [inhibitor, partial curve] |  |
| COc1ccccc1C(=O)N/C(=C/c1cccc([N+](=O)[O-])c1)C(=O)Nc1cccc(C(=O)O)c1 | inconclusive: 26.9 µM [inhibitor, partial curve, poor fit] |  |
| C=CCc1c(C)nc(C)nc1N/N=C/c1ccc(F)cc1 |  | inactive: 2.02% |
| Cc1noc(C)c1COC(=O)c1cccc(S(=O)(=O)N2c3ccccc3CC2C)c1 (stereo not drawn) |  | inactive: 0.491% |
| CC(C)Sc1ncnc2c1oc1ccccc12 | active: 23.9 µM |  |
| CCCOc1ccc(-c2nc(=S)[nH][nH]2)cc1 | inconclusive: 26.9 µM [inhibitor, single point] |  |
